Here are results for six molecules from article PMC12136788.

This is one part of the list.

First the molecules themselves.
T1: UNK ZnF1-3 (human, UniProt Q9C0B0 31-174)
T1 sequence: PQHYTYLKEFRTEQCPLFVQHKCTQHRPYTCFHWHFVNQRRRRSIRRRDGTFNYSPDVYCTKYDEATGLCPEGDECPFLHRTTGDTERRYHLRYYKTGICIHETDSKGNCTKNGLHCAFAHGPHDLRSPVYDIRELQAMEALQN

B1: chr18:13746249:13746250:+_ENSG00000101654_ENST00000262173|hu_hu|FALSE|FALSE (ssRNA)
RNA: GGGAGUUCUACAGUCCGACGAUCAUUUUCAUUGUUCUUAAUCUUUUCUUCGUAGAAUUCCAGAAAUGUUUUUUUGUAGACUAGUUUCAUAUUGUACUUCUUUGCCAUUUCAUUUAGCAAUGGAAAAUAGACCAAGAAUUCAGGCAACAGAGGAUUGAGCAUCA
B2: 65460615_65465888_1110_CDS_ENSG00000153914_ENST00000334121|human|control|control (ssRNA)
RNA: GGGAGUUCUACAGUCCGACGAUCGGAUCUACUCCUGUGUUUUGAUUGUGAUCUUUUCCUUCUAGAAUGGGAUUUUGAGCUAGACCUGGAUUUUGAGCGAGUAUGGGAACGAGAUCGACCGCCUUUUCUUUCAUUGCUCUUUCCCAACAGAGGAUUGAGCAUCA
B3: chr3:169712149:169712150:+_ENSG00000008952_ENST00000337002|hu_hu|FALSE|FALSE (ssRNA)
RNA: GGGAGUUCUACAGUCCGACGAUCUUAAUUCAAACACUUAGAUGAGAAACAGCCUAAAGCAAAGACUGACAUACACUACCUAUUUCAACCACAAAGCAAGAUGCUCUCACUGUGACUGAAGAAAAAUCAUUUAAUAUUCAUUAUCAACAGAGGAUUGAGCAUCA
B4: chr17:56552419:56552420:-_ENSMUSG00000013236_ENSMUST00000086828|mus_mus|mus_mus_mus_hu_False|58_108 (ssRNA)
RNA: GGGAGUUCUACAGUCCGACGAUCAAAGUUUUUUUCUUUUAAAAAAAAUGAAAUGUCACGGGAUACAGUUACACUGACACUAUUAAAAGAAAGCUGGAUUCUGGUCCCAGCCCAGUGUCCCCAGGCUGCAGAGCGGGGAGGAGCCAACAGAGGAUUGAGCAUCA
B5: chr2:202488911:202488912:-_ENSG00000155755_ENST00000286196|hu_mus|hu_hu_hu_mus_False|28_48 (ssRNA)
RNA: GGGAGUUCUACAGUCCGACGAUCAUUGAAACAUUUUUCAUAAUCUCCAGUAGCAUUUCAGCAUUAUGUAACAAAAGCUCAAUUGUAAAUACACAUGUCUUAUAAAAAUAAAAAUACAAACACGAGUGGGGAGCGCAGGCGCCACAACAGAGGAUUGAGCAUCA
B6: chr17:65740002:65740003:+_ENSG00000130935_ENST00000581375|hu_hu|hu_hu_hu_mus_False|68_78 (ssRNA)
RNA: GGGAGUUCUACAGUCCGACGAUCAACAAAUCUUUCUUCCCUGGACGAACAGGAAGACAUAAAAGAGCUUUAUAAAAUAUCCAUCAAGUUAGGUGUGGUGGCCACACCUUUACUCCCAGCACUUUGGGAGGUGGAUCUCUGAGUCAACAGAGGAUUGAGCAUCA

The assay addresses T1, UNK ZnF1-3. As to the kind of experiment: nsRBNS (natural sequence RNA bind-n-seq); RBNS binding buffer (assumed for nsRBNS): 25 mM Tris pH 7.5, 150 mM KCl, 3 mM MgCl2, 0.01% Triton X-100, 500 ug/ml BSA, 20 U/ml SUPERase-In, 4 C; UNK is unkempt and MSI1 is Musashi-1; names of the RNAs are library labels; protein concentration not given here; high values mean tight binding.
B1 came in with a binding signal of 0.421 enrichment R. For B2, the binding signal stood at 0.384 enrichment R. For B3 the value was 1.3 enrichment R. The figure for B4 is 1.77 enrichment R; for B5 it is 1.76 enrichment R. In the case of B6, the binding signal was 0.818 enrichment R.
